T1: HA-RAB23 (human) (UniProt Q9ULC3)
T1 sequence: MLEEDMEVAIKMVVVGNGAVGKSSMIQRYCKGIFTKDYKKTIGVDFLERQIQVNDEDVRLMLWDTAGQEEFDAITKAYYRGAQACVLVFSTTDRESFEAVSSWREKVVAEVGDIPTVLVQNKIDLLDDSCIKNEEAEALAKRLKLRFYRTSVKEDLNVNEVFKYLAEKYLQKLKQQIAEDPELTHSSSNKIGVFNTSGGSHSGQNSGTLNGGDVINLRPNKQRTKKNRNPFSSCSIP

Protein sequences, listed by entry. Tags and fused reporters are not part of them.
UniProt O95782: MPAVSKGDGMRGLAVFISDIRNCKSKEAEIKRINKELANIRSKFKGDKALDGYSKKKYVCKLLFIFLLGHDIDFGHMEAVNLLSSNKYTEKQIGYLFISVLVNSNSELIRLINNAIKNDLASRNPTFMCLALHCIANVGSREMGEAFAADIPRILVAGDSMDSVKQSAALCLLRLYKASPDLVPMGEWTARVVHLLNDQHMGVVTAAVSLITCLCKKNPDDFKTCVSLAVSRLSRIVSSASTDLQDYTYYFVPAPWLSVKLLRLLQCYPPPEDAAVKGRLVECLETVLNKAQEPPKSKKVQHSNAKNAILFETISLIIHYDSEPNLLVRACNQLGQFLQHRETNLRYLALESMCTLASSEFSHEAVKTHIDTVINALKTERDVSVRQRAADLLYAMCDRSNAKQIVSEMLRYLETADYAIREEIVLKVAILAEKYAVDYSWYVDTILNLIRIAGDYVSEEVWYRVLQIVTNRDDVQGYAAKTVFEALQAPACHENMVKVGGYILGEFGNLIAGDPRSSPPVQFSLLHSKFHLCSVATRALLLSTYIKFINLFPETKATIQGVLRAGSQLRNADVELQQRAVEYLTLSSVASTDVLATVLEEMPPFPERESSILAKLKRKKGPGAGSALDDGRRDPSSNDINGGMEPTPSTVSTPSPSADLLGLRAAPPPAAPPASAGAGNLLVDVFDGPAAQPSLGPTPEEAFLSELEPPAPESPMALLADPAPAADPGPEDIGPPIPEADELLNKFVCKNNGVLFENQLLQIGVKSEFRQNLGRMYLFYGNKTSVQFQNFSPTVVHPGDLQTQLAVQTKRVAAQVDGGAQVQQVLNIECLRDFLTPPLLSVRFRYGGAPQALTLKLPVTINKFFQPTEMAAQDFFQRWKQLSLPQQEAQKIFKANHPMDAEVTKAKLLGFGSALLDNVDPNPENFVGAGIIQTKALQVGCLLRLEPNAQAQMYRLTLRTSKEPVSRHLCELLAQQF
UniProt O94973: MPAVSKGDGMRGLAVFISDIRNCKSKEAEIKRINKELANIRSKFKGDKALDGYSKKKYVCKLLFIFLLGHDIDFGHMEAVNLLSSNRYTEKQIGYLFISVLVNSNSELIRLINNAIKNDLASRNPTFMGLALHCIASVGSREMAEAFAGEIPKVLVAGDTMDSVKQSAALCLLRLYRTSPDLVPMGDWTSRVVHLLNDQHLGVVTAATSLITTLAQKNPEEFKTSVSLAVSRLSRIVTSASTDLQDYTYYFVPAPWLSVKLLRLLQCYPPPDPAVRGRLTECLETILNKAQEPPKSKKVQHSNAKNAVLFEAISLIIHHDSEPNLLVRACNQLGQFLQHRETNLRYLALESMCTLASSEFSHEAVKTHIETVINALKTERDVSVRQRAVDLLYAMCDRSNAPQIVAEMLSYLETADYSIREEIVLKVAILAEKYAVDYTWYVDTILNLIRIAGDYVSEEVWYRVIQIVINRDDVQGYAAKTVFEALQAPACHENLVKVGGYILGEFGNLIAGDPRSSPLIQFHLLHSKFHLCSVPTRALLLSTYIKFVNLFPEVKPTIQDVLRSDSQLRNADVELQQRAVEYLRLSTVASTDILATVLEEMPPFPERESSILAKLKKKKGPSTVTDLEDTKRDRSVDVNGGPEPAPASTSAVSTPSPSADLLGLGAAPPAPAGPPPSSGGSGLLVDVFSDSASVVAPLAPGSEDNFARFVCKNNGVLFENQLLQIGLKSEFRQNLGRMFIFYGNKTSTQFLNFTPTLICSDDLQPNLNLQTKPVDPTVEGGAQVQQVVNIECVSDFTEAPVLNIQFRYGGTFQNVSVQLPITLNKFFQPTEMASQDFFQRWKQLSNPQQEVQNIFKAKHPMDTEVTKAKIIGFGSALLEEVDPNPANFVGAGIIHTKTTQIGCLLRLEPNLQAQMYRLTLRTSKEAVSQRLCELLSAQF
UniProt P63010: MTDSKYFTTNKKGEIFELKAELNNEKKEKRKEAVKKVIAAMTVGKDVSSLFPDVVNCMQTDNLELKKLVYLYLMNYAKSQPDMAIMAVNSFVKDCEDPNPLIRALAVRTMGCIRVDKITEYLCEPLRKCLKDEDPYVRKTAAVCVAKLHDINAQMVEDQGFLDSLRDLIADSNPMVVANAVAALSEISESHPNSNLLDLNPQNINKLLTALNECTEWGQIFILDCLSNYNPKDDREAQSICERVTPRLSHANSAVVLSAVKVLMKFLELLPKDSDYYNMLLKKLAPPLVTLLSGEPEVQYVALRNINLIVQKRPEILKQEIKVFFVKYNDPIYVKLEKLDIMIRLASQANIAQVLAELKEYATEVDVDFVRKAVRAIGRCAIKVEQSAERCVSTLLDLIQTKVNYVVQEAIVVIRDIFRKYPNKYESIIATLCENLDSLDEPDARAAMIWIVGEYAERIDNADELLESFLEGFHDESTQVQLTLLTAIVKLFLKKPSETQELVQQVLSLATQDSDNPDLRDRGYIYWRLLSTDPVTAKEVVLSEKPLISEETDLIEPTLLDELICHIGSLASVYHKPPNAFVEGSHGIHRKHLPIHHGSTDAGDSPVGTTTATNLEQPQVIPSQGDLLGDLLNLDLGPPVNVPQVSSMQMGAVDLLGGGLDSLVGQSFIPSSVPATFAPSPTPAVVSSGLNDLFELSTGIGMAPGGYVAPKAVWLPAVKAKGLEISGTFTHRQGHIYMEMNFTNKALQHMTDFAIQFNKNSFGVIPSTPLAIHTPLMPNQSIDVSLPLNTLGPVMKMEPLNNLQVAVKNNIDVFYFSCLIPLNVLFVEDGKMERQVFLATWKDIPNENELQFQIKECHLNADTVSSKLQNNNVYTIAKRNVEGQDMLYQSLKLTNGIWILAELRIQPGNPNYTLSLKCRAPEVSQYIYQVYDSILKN
UniProt Q14247: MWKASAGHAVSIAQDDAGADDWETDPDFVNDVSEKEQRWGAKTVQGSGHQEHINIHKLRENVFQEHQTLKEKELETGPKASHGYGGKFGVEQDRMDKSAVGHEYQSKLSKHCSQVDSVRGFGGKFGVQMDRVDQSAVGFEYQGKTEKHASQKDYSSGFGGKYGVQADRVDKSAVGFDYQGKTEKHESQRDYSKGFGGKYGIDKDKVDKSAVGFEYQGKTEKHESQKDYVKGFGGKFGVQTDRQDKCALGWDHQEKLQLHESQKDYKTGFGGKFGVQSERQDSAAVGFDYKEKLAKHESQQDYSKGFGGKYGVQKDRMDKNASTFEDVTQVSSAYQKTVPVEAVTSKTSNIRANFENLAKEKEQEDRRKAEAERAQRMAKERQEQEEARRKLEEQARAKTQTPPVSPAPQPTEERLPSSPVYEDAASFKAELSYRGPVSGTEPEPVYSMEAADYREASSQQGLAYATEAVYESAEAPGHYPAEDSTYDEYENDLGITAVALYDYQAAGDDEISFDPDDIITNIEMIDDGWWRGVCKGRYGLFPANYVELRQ
UniProt Q99961: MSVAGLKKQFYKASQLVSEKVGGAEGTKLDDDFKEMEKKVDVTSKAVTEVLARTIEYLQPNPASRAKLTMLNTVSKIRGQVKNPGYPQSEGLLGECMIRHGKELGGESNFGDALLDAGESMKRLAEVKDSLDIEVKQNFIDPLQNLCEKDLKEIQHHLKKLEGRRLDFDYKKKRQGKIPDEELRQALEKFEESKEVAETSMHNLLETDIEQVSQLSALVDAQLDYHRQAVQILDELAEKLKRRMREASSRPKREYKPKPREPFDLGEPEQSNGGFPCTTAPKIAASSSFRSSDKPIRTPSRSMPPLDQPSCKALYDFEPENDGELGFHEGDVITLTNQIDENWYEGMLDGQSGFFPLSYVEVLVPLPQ

T2: GFP-RAB23 (human) (UniProt Q9ULC3)
T2 sequence: T1 sequence

B1: Phosphatidylinositol-binding clathrin assembly protein (protein, UniProt Q13492 1-652)
chain: MSGQSLTDRITAAQHSVTGSAVSKTVCKATTHEIMGPKKKHLDYLIQCTNEMNVNIPQLADSLFERTTNSSWVVVFKSLITTHHLMVYGNERFIQYLASRNTLFNLSNFLDKSGLQGYDMSTFIRRYSRYLNEKAVSYRQVAFDFTKVKRGADGVMRTMNTEKLLKTVPIIQNQMDALLDFNVNSNELTNGVINAAFMLLFKDAIRLFAAYNEGIINLLEKYFDMKKNQCKEGLDIYKKFLTRMTRISEFLKVAEQVGIDRGDIPDLSQAPSSLLDALEQHLASLEGKKIKDSTAASRATTLSNAVSSLASTGLSLTKVDEREKQAALEEEQARLKALKEQRLKELAKKPHTSLTTAASPVSTSAGGIMTAPAIDIFSTPSSSNSTSKLPNDLLDLQQPTFHPSVHPMSTASQVASTWGDPFSATVDAVDDAIPSLNPFLTKSSGDVHLSISSDVSTFTTRTPTHEMFVGFTPSPVAQPHPSAGLNVDFESVFGNKSTNVIVDSGGFDELGGLLKPTVASQNQNLPVAKLPPSKLVSDDLDSSLANLVGNLGIGNGTTKNDVNWSQPGEKKLTGGSNWQPKVAPTTAWNAATMAPPVMAYPATTPTGMIGYGIPPQMGSVPVMTQPTLIYSQPVMRPPNPFGPVSGAQIQFM

Results are given in words; binding and its absence hold for the method and conditions named. Binding seen in cells or lysates may run through a third protein. Some results given as binding are weak or reduced against the parent protein; the word gives no strength. Tags and fused reporters may be left off the sequences shown.

Experimental findings from article PMC12014981 are described below.

One assay has as its target T1, HA-RAB23 (human). The experiment in a line: co-IP; mouse anti-HA antibody and protein G Mag sepharose on lysates of MG-63 cells transfected with HA-RAB23 pcDNA3.1 (control: IgG on un-transfected cells); cells starved 1 h, osteogenic medium with BMP2 10 min; Pierce IP lysis buffer, 4 °C overnight; western blot.
Regarding “α-adaptin 1 subunit of Adaptor protein 2 complex (from UniProt O95782 1-977)”, the binding result is “no binding”. On the same count and under the same terms, with “α-adaptin 2 subunit of Adaptor protein 2 complex (from UniProt O94973 1-939)” the entry was “no binding”; with “β-adaptin subunit (AP2β1) of the clathrin adaptor protein 2 (AP-2) complex (from UniProt P63010 1-937)”, “binds”.

The next assay has as its target T2, GFP-RAB23 (human). The experiment in a line: co-IP; GFP-Trap A agarose beads on lysates of MG-63 cells transfected with GFP-RAB23 or control GFP; cells starved 1 h, osteogenic medium with BMP2 10 min; western blot.
For the molecule cortactin (from UniProt Q14247 1-550), the binding result is on record as “binds”. Regarding “endophilin A2 (from UniProt Q99961 1-368)”, the binding result is on record as “binds”.

Consider B1, for which the binding result is recorded as “binds”.
